Experimental data reported in a collection of fitness landscapes (doi:10.1016/j.celrep.2020.107928).
Whole data set: some 81,000 sequences, median “one-hybrid fitness for binding parS DNA” near -0.17, cut for the highest 2% near 0.51. This is one part of the list.

B1: Caulobacter ParB omega fusion; a variant is named by its letters at X, in order, B8GW30 (parent)
chain: MESVVVGEPGMSEGRRGLGRGLSALLGEVDAAPAQAPGEQLGGSREAPIEILQRNPDQPRRTFREEDLEDLSNSIREKGVLQPILVRPSPDTAGEYQIVAGERAWRAAQRAGLKTVPIMVRELDDLAVLEIGIIENVQRADLNVLEEALSYKVLMEKFERTQENIAQTIGKSXSHVANXMRLLXLPDEVQSYLVSGELTAXHARAIAAAADPVALAKQIIEGGLSVRETEALARKAPNLSAGKSKGGRPPRVKDTDTQALESDLSSVLGLDVSIDHRGSTGTLTITYATLEQLDDLCNRLTRGI

Variants of: B1
Assay: one-hybrid fitness for binding parS DNA (scaled: cognate 1, non-cognate 0); higher = stronger binding
Conditions: with parS DNA site
How it was run: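 Pre- and post-selection plasmids were Illumina-sequenced, three replicate libraries were pooled, and any variant with under 10 reads was removed. The libraries were Caulobacter ParB with four specificity codons randomised, selected in E. coli USO through a HIS3 reporter whose site is 19 bp from the promoter. Cells grew 48 hours at 37°C on M9 without histidine, with 0.1 mM IPTG and 5 mM 3-AT. Fitness is the log change in variant-to-wild-type read ratio, rescaled against cognate and non-cognate.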

one-hybrid fitness for binding parS DNA, 0.206:
AKYF

one-hybrid fitness for binding parS DNA, 0.921:
RYHS

one-hybrid fitness for binding parS DNA, 0.503:
RHMA

one-hybrid fitness for binding parS DNA, 0.247:
RSQW

one-hybrid fitness for binding parS DNA, 0.454:
RFEA

one-hybrid fitness for binding parS DNA, ≤ 0.2:
TPQS
LLDT
YQCV
NTKH
MWYR
VMPG
GGAS
CCTY
TRHT
VLFM
QYPE
RDNM
LMSG
PPSH
NNEA
SHSI
YDAI
YAPT
GDAS
DLTP
TPVK
NGPA
AGVC
SKWH
DSWG
QDPT
NVRF
VLYV
MTCD
LARW
WRTS
TDQT
YHSC
NHPE
DFTT
EENK
EQNW
AMIG
AEKC
KYYC
SQPS
SRAY
TVAD
QGIG
QWSC
IDAK
SWHY
AYDR
PGSR
FNNG
LEST
CISS
TVKH
KLDL
PISG
TRKH
QFPS
LNPD
DLYL
PNLR
ITSK
QGVA
LGYN
RVMI
LQIN
DEWS
SEPA
IEYR
QHMT
IINW
VYRP
TNMC
YPAA
RKAD
CRKT
ISNG
HIEK
YLCY
ERRV
PAKC
STPT
TFQK
SIYF
QRWT
LKQP
YCIW
CEQS
RKHQ
LLAN
ECTS
KNRV
DSYD
QPQT
AQHL
ITYG
PMSM
ELDL
CTGH
MLNE
HYTD
SMAI
RYYQ
VSYC
IQCS
AITE
MLYS
ANSH
GASR
CISL
TYVC
TKKQ
PNPC
WAKG
LCSA
RAKR
QICV
WYQS
SVKL
QCNT
GMDG
TSQD
PDSE
ARID
YHKS
AAVD
QTNY
HGLS
QVTC
TTTN
LEEC
EKTT
MYLM
LKEV
AWRT
WQFG
MNSY
MRDL
AGKS
QTMV
IHTM
NPTM
CEWG
ISAL
TCML
NRAV
KTGE
WWDC

one-hybrid fitness for binding parS DNA, 0.207:
HKFS
